# Source: PubChem BioAssay (NCATS)
# Inconclusive results, whose numbers are uncertain, are shown with a selection of clear calls. For some assays here: Potencies of inconclusive entries are doubtful fits and often do not repeat. Active and inactive are the calls of the source. Unless noted, calls follow the shape of the dose curve; as a rule, active = well fitted curve in either direction with a large enough effect (not every such curve was filed as active); inconclusive = small, poorly fitted or top-dose-only effect, or another doubt; inactive = flat fitted curve, though single readings scatter. Residues, ends and D or L forms follow the SMILES beside them.
# Key:
# [1] = NFAT Signaling Pathway (AID 444); conditions: Jurkat NFAT-bla M1, carbachol, beta-lactamase ratio, 5 h; at 17.2 µM (top of the series) unless noted;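 also: carbachol stimulus at about its EC50 of 1 µM final; % is scaled to controls: 0 for no effect and ±100 for the full control effect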
# Outline: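 Read-out: CCF4 FRET ratio (460 nm/530 nm) after 1 h RT dye loading, used for %activity and AC50 from titration series. Cells: Jurkat NFAT-β-lactamase/M1 line, treated with compound plus 1 uM carbachol for 5 h, 37 °C.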
# [2] = biological target: 3',5'-cyclic-AMP phosphodiesterase 4B (Homo sapiens) (UniProt Q07343); experiment: qHTS Assay for Inhibitors of PDE-IV (AID 607; active = well fitted activation curve with a large enough effect in the main read-out, with a control signal flat, not every such curve was filed as active; inconclusive = small, poorly fitted or top-dose-only effect, or effect the other way, or a change in a side signal; also: potency is read from the fitted curve at half-maximal effect; as to activation (PDE inhibition): % of control where 0% means no effect); conditions: HEK293 ACTOne CNG channel cells, membrane potential fluorescence; activation (PDE inhibition): at 22.9 µM (top of the series)
# Outline: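 ACTOne HEK293 cells carry a modified cAMP-gated CNG channel and express endogenous PDE4; plated 1000 cells/well, compounds up to 22.9 uM final. Membrane-potential dye fluorescence (ex 535/em 590) was read; parental cells received 10 uM forskolin + 100 uM RO 20-1724.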
# [3] = biological target: Cytochrome P450 2D6 (Homo sapiens) (UniProt P10635); experiment: qHTS Assay for Inhibitors and Substrates of Cytochrome P450 2D6 (AID 891; active = well fitted curve in the direction sought with a large enough effect; inconclusive = small, poorly fitted or top-dose-only effect, or another doubt; inactive = no such curve, though single readings can be large; an effect the other way counts as inactive or inconclusive;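 also: luciferin methyl ether substrate demethylated by CYP2D6 with NADPH regeneration; potency is read from the fitted curve at half-maximal effect; nearly all actives have a fitted effect of over 60% in size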); conditions: recombinant CYP2D6, luciferin-ME EGE luminescence; activity change, negative = inhibition: at 57.1 µM (top of the series)
# Outline: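 Luminescent read-out of luciferin formed by 5 nM human CYP2D6 demethylating 30 uM Luciferin-ME EGE (Km level) over 60 min at room temperature after NADPH regeneration addition. Data normalized to full inhibition by 1.43 uM quinidine.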
# [4] = qHTS Assay for Identification of Small Molecule Agonists for Hypoxia Response Element Signaling Pathway (AID 914; active = well fitted activation curve with a large enough effect in the signal ratio, with a control signal flat, not every such curve was filed as active; inconclusive = small, poorly fitted or top-dose-only effect, or effect the other way, or a change in a side signal; the % refers to the signal ratio; also: potency is read from the fitted curve at half-maximal effect); conditions: ME-180 (cervical carcinoma) HRE-bla reporter, beta-lactamase ratio, CoCl2, 17 h; activation: hits give high values
# Outline: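 HRE-bla ME-180 cells with beta-lactamase reporter under hypoxia response element, compounds with EC50 CoCl2 for 17 hours at 37 C. CCF4 substrate, 460nm/530nm emission ratio gave %Activity; AC50 from titration series.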
# [5] = biological target: Cytochrome P450 2C19 (Homo sapiens) (UniProt P33261); experiment: qHTS Assay for Inhibitors and Substrates of Cytochrome P450 2C19 (AID 899; active = well fitted curve in the direction sought with a large enough effect; inconclusive = small, poorly fitted or top-dose-only effect, or another doubt; inactive = no such curve, though single readings can be large; an effect the other way counts as inactive or inconclusive; also: potency is read from the fitted curve at half-maximal effect; nearly all actives have a fitted effect of over 60% in size)
# Outline: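 Luminescence readout of luciferin formed from 10uM Luciferin-H EGE (KM level) by 5 nM CYP2C19 in 50mM KPO4. 60 min NADPH-driven reaction at 37C after 10 min compound preincubation; data scaled to 57uM ketoconazole inhibition.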
# [6] = biological target: Cytochrome P450 2C9 (Homo sapiens) (UniProt P11712); experiment: qHTS Assay for Inhibitors and Substrates of Cytochrome P450 2C9 (AID 883; active = well fitted curve in the direction sought with a large enough effect; inconclusive = small, poorly fitted or top-dose-only effect, or another doubt; inactive = no such curve, though single readings can be large; an effect the other way counts as inactive or inconclusive; also: potency is read from the fitted curve at half-maximal effect; nearly all actives have a fitted effect of over 60% in size); conditions: recombinant CYP2C9, luciferin-H luminescence, 60 min; activity change, negative = inhibition: at 57.1 µM (top of the series)
# Outline: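 Luminescent read-out of deoxyluciferin hydroxylation, normalized to 57uM sulphaphenazole (AC100). Reaction: 10nM enzyme, 100uM Luciferin-H (equal to KM), 25mM KPO4, 10 min compound preincubation, then 60 min with NADPH regeneration, both at 37C.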
# [7] = biological target: Cytochrome P450 3A4 (Homo sapiens) (UniProt P08684); experiment: qHTS Assay for Inhibitors and Substrates of Cytochrome P450 3A4 (AID 884; active = well fitted curve in the direction sought with a large enough effect; inconclusive = small, poorly fitted or top-dose-only effect, or another doubt; inactive = no such curve, though single readings can be large; an effect the other way counts as inactive or inconclusive; also: potency is read from the fitted curve at half-maximal effect; nearly all actives have a fitted effect of over 50% in size)
# Outline: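 Luminescent readout of luciferin produced by CYP3A4 (20 nM) dealkylation of Luciferin-PPXE, 25 uM (its KM). NADPH-driven reaction ran 60 min at RT after 10 min compound preincubation; data scaled to 57 uM ketoconazole as 100% inhibition.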
# [8] = qHTS Assay for Identification of Small Molecule Antagonists for NFkB Signaling Pathway (AID 895; active = well fitted inhibition curve with a large enough effect in the signal ratio, with a control signal flat, not every such curve was filed as active; inconclusive = small, poorly fitted or top-dose-only effect, or effect the other way, or a change in a side signal; the % refers to the signal ratio; also: potency is read from the fitted curve at half-maximal effect); conditions: NFkB beta-lactamase reporter cells, FRET ratio 460/530, stimulated with 10 pM TNF alpha; activity change, negative = inhibition: at 38.3 µM (top of the series)
# Outline: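 Beta-lactamase reporter read-out (460 and 530 nm emission ratio, 405 nm excitation, 2 hrs substrate loading RT) after 5 hr stimulation with 10 pM TNF alpha in compound-treated NFkB-bla ME-180 cells in low-serum medium.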
# [9] = qHTS Assay for Identification of Small Molecule Antagonists for Thrombopoietin (TPO) Signaling Pathway (AID 918; active = well fitted curve in the direction sought with a large enough effect; inconclusive = small, poorly fitted or top-dose-only effect, or another doubt; inactive = no such curve, though single readings can be large; an effect the other way counts as inactive or inconclusive; also: nearly all actives have a fitted effect of over 60% in size); conditions: TPO-dependent cell signaling reporter, antagonist mode; activity change, negative = inhibition: at 38.5 µM (top of the series)
# Outline: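 Inhibition read as reduced luciferase luminescence after 24 h at 37 C in IL-3-deprived Ba/F3 cells carrying human TPO receptor and GPIIb-promoter reporter, stimulated with 26 pM TPO (final, its EC50) alongside compound.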
# [10] = biological target: Muscarinic acetylcholine receptor M1 (Rattus norvegicus) (UniProt P08482); experiment: qHTS Assay for Antagonists of Acetylcholine Muscarinic M1 Receptor: Measurement of IP-One Response (AID 944; active = well fitted curve in the direction sought with a large enough effect; inconclusive = small, poorly fitted or top-dose-only effect, or another doubt; inactive = no such curve, though single readings can be large; an effect the other way counts as inactive or inconclusive; also: nearly all actives have a fitted effect of over 75% in size)
# Tags tell the direction and shape of the fitted curve or compound fluorescence and quenching.
# UniProt Q07343, sequence (Q07343 whole entry, looked up): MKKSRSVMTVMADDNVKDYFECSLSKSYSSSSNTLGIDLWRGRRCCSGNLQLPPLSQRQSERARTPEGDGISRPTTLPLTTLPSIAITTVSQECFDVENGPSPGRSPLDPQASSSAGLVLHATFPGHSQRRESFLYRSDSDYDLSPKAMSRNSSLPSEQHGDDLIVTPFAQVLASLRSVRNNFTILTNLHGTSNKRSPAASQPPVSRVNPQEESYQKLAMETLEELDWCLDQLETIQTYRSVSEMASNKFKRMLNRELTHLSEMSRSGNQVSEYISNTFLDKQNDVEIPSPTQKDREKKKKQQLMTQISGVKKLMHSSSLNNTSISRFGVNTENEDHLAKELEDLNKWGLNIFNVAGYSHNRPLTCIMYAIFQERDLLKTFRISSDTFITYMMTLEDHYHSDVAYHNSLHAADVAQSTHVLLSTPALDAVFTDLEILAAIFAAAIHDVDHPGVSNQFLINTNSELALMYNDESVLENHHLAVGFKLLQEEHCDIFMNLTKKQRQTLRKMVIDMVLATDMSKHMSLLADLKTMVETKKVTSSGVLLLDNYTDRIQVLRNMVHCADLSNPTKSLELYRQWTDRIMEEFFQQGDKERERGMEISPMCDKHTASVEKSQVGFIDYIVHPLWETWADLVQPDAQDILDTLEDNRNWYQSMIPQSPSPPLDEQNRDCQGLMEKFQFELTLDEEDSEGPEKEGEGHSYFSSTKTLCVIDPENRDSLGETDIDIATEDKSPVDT
# UniProt P08684, sequence (P08684 whole entry, looked up): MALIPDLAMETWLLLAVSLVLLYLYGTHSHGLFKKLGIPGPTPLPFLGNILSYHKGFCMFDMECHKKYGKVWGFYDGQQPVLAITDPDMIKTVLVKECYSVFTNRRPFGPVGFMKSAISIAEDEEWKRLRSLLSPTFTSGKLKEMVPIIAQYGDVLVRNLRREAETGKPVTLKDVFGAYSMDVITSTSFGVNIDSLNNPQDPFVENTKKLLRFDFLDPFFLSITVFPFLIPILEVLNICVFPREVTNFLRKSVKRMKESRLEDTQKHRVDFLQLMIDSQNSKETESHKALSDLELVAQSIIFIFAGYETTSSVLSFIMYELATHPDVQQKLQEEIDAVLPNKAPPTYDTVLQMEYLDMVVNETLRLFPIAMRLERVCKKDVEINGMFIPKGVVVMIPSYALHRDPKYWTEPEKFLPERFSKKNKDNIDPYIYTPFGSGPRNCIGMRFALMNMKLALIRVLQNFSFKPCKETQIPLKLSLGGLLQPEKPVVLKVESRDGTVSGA
# UniProt P33261, sequence (P33261 whole entry, looked up): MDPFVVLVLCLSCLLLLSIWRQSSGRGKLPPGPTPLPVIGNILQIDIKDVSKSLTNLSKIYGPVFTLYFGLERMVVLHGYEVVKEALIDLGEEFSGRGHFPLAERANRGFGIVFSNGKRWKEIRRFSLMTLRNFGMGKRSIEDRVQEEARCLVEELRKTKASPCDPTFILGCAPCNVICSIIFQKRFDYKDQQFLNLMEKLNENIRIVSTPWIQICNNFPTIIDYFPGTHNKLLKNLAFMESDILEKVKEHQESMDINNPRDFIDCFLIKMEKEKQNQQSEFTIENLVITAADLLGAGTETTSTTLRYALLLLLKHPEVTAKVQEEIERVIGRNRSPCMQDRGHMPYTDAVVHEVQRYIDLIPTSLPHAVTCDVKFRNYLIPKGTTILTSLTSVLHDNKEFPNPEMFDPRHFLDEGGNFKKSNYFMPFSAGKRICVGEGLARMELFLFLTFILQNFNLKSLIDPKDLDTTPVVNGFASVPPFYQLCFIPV
# UniProt P10635, sequence (P10635 whole entry, looked up): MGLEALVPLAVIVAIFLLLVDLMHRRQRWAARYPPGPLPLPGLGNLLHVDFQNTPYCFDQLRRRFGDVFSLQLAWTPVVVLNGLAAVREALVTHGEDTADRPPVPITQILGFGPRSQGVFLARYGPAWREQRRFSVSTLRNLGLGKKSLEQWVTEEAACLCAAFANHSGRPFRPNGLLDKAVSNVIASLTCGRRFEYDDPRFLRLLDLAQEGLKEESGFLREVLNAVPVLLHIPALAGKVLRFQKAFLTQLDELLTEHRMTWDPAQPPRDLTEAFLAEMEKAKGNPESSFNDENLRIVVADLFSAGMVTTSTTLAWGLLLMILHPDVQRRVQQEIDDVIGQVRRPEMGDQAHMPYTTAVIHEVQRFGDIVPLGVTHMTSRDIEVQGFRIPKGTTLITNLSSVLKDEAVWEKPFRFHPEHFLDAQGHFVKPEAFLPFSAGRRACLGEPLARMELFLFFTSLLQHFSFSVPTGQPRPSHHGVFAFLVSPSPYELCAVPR
# UniProt P11712, sequence (P11712 whole entry, looked up): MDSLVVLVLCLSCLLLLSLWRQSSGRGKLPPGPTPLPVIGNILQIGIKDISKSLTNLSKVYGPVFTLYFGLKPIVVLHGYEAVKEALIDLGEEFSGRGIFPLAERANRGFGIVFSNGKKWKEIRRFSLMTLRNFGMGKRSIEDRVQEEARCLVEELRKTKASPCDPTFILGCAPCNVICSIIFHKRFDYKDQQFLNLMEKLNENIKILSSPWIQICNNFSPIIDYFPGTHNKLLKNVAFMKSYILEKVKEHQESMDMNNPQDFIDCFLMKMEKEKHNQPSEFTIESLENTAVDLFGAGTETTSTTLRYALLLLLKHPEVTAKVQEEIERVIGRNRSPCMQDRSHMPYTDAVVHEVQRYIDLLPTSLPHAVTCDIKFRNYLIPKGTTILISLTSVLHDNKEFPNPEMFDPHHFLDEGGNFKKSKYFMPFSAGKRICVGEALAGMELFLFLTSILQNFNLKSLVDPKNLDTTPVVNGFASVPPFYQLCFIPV
# UniProt P08482, sequence (P08482 whole entry, looked up): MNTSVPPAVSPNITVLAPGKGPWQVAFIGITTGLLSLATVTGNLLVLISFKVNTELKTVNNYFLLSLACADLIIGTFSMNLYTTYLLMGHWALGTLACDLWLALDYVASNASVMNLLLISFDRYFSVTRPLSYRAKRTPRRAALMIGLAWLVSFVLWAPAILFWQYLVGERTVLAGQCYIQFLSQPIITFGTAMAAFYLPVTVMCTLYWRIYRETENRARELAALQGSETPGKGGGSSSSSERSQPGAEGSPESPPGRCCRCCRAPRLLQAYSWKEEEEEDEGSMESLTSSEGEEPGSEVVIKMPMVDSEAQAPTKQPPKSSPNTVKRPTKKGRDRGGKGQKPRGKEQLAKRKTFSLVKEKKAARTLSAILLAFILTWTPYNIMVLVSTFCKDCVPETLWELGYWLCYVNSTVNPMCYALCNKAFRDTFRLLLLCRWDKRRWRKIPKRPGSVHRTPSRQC
smiles,measurement,setting,value
c1ccc2sc(SCSc3nc4ccccc4s3)nc2c1,"activity change, negative = inhibition",[1],inconclusive: -35.2% [inhibitor] [at 7.69 µM]
same,Potency,[2],inactive
same,Potency,[3],"inconclusive: 2.51 µM [inhibitor, partial curve]"
same,Potency,[4],"inconclusive: 5.01 µM [inhibitor, single point]"
CC1CCN(CC(=O)N2c3ccccc3Sc3cc4ccccc4cc32)CC1,"activity change, negative = inhibition",[1],inconclusive: -70.8% [inhibitor] [at 7.69 µM]
same,Potency,[2],"inconclusive: 12.6 µM [activator, single point]"
NCCSCCc1ccccc1,"activity change, negative = inhibition",[1],inactive: 3.22% [at 7.69 µM]
same,Potency,[2],inactive
same,Potency,[3],"inconclusive: 3.16 µM [inhibitor, partial curve]"
same,Potency,[5],"inconclusive: 3.16 µM [inhibitor, single point]"
Cc1ccc(N[C@H](c2ccccc2)c2ccc3cccnc3c2O)cc1,"activity change, negative = inhibition",[1],inconclusive: -116% [inhibitor] [at 7.69 µM]
same,Potency,[2],inactive
same,Potency,[6],"inconclusive: 3.98 µM [inhibitor, single point]"
same,Potency,[7],"inconclusive: 3.16 µM [inhibitor, partial curve]"
same,Potency,[5],"inconclusive: 3.98 µM [inhibitor, partial curve, poor fit]"
c1csc(CNc2ncncc2-c2ccc3c(c2)OCO3)c1,"activity change, negative = inhibition",[1],inactive: -6.2% [at 7.69 µM]
same,Potency,[2],"inconclusive: 12.6 µM [activator, partial curve]"
COCC(=O)N1CCC2(CC1)CN(c1ccncc1)C2,"activity change, negative = inhibition",[1],inactive: 2.67% [at 7.69 µM]
same,Potency,[2],inactive
OCCCNc1ncnc2[nH]ncc12,"activity change, negative = inhibition",[1],inactive: 0.588% [at 7.69 µM]
same,Potency,[2],inactive
NCC(=O)N[C@H](CO)C(=O)O (HELM PEPTIDE1{G.[dS]}$$$$V2.0),"activity change, negative = inhibition",[1],inactive: -7.28% [at 7.69 µM]
same,Potency,[2],inactive
O=C1[C@@H]2C=CC=CC2=NC(=S)N1CCN1CCC(=C(c2ccc(F)cc2)c2ccc(F)cc2)CC1,"activity change, negative = inhibition",[1],inconclusive: -64.5% [inhibitor] [at 38 µM]
same,Potency,[2],"inconclusive: 12.6 µM [rising, partial curve]"
same,Potency,[7],"inconclusive: 3.16 µM [inhibitor, full curve]"
same,Potency,[8],"inconclusive: 0.0035 µM [inhibitor, full curve, poor fit]"
same,"activity change, negative = inhibition",[9],inconclusive: -18.5% [phenotype inactive]
same,Potency,[10],inactive
